Assay results: patent US20120295845A1, “IMIDAZO-PYRAZOLES AS GPR119 INHIBITORS” (Pfizer Inc, priority 2009, published 2012)
For part of its entries the source gives two or more results. The list is limited to them. An entry can have further records. The values listed for one entry seem to repeat one measurement; one of them may be the mean.

Biological target: T1, human GPR119 (Homo sapiens, UniProt Q8TDV5)
T1 construct: host or cells: HEK293-CRE beta-lactamase cells
T1 sequence (Q8TDV5 1-335): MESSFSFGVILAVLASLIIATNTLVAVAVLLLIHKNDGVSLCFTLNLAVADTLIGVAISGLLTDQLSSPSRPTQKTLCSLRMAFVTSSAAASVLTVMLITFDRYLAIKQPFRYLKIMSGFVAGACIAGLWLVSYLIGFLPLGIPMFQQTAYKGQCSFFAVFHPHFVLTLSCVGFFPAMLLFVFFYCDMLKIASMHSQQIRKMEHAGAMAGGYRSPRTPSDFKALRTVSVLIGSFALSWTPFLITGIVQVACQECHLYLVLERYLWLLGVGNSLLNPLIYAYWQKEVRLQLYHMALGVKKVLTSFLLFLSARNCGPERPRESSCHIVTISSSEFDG
Assay: cAMP functional assay (HTRF, hGPR119 HEK-CRE beta-lactamase cells)
Type: cell-based
Details: 30 min incubation with IBMX, one value per run
Description: GPR119 agonist activity was also determined with a cell-based assay utilizing an
HTRF (Homogeneous Time-Resolved Fluorescence) cAMP detection kit (cAMP dynamic 2 Assay Kit; Cis Bio cat # 62AM4PEC) that measures cAMP levels in the cell. The method is a competitive immunoassay between native cAMP produced by the cells and the cAMP labeled with the dye d2. The tracer binding is visualized by a Mab anti-cAMP labeled with Cryptate. The specific signal (Le. energy transfer) is inversely proportional to the concentration of cAMP in either standard or sample. […]
Varying concentrations of each compound to be tested were diluted in assay buffer containing 3-isobutyl-1-methylxanthin (1BMX; Sigma cat #15879) and added to the assay plate weds in a volume of 2 microL (final BMX concentration was 400 microM and final DMSO concentration was 0.58%). […] The plates were then incubated at room temperature and after 60 minutes, changes in the HTRF signal were read with an Envision 2104 multilabel plate reader using excitation of 330 nm and emissions of 615 and 665 nm. Raw data were converted to nM cAMP by interpolation from a cAMP standard curve (as described in the manufacturer's assay protocol) and EC50 determinations were made from an agonist-response curves analyzed with a curve fitting program using a 4-paramter logistic dose response equation.

With `Cc1c(OC2CCN(C(=O)OC(C)C)CC2)ncnc1N1CCn2nccc21` [Example 1, Isopropyl 4-{[6-(2,3-dihydro-1H-imidazo[1,2-b]pyrazol-1-yl)-5-methylpyrimidin-4-yl]oxy}piperidine-1-carboxylate] the EC50 was 703 nM, 842 nM, > 10 µM [lines of one column].
